Test results published in PubChem BioAssay AID493208 (National Center for Advancing Translational Sciences (NCATS), 2011).
Screen size: about 44,000 compounds; about 340 (0.77%) were called active. Inconclusive results (about 5%) are left out. Calls follow the shape of the dose curve; as a rule, active = well fitted inhibition curve with a large enough effect; inconclusive = small, poorly fitted or top-dose-only effect; inactive = flat fitted curve, though single readings scatter. The list shows a part of the results.

test: Acumen qHTS Assay for Inhibitors of the mTORC1 Signaling Pathway in MEF (Tsc2-/-, p53-/-) Cells: Sytravon; details: phospho-rpS6 immunofluorescence/PI, 24 h; series mostly up to 38.3 µM; activity change, negative = inhibition: at the top concentration;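 also: plate controls were DMSO for no effect and rapamycin for full effect; nearly all actives have a fitted effect of over 50% in size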
Procedure, shortened: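 Immunofluorescence of rpS6 phosphorylation in Tsc2-/-, p53-/- MEFs after 24 h compound exposure, normalized to propidium iodide signal. Activity is expressed as % positive cells, thresholded with 7.5 nM rapamycin.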

Activity change, negative = inhibition, inactive:
CN(Cc1ccco1)S(=O)(=O)c1nnc(NC(=O)c2cccc(Cl)c2)s1 -2.63%, Cc1ccc(NC(=O)c2nc(S(C)(=O)=O)ncc2N(Cc2ccco2)Cc2ccco2)cc1C -0.365%, Cc1ccc(NC(=O)Cn2c(=O)oc3cc(S(=O)(=O)N4CCCCCC4)ccc32)cc1Cl -0.199%, CC(C)C(NS(=O)(=O)c1ccc2c(c1)oc(=O)n2C)C(=O)NCCc1ccc(Cl)cc1 (stereo not given) 1.12%, CCOc1ccc(Nc2c(S(=O)(=O)c3ccccc3)cnc3ccccc23)cc1 -1.31%, Cc1ccc2cccc(NC(=O)c3ccc(-c4cccc(Cl)c4)o3)c2n1 -3.08%, Cc1ccc(-c2nnc(Nc3ccc(S(N)(=O)=O)cc3)c3ccccc23)cc1S(=O)(=O)N1CCCCC1 10.7%, CCOCCCNC(=O)C(c1ccc(Cl)cc1)N(Cc1cccs1)C(=O)c1ccc(NC(C)=O)cc1 (stereo not given) -17%, Cc1ccc(NC(=O)CN2C(=O)C3(SCC(=O)N3c3ccc(F)c(F)c3)c3ccccc32)c(C)c1 (stereo not given) -13.2%, CCC(=O)N1CCc2cc(Br)cc(S(=O)(=O)CCC(=O)N(CC)Cc3ccccc3)c21 6.73%, CC(C)(Oc1ccc(Cl)cc1)C(=O)Nc1nc2ccc(S(C)(=O)=O)cc2s1 -0.38%, CN(C)c1ccc(C(CNC(=O)c2c(F)cccc2Cl)N2CCOCC2)cc1 (stereo not given) 19.5%, CC(=O)N1CCc2cc(CNS(=O)(=O)c3ccc(Cl)s3)ccc21 8.24%, COc1ccc(-n2c(=O)c3c4c(sc3n3c(SCCC(C)C)nnc23)COC(C(C)C)C4)cc1 (stereo not given) 5.86%, COc1ccc(Cl)cc1NC(=O)NCC1CCN(Cc2ccccc2F)CC1 -15.9%, CCOc1ccc(OCC)c(NS(=O)(=O)c2cc(-c3onc(C)c3C)ccc2OC)c1 -9.1%, COc1cc(OC)cc(C(=O)Nc2ccc3oc(-c4cccc5c(Br)cccc45)nc3c2)c1 6.49%, CN1C(=O)C2(SCC(=O)N2c2ccc(F)cc2)c2ccccc21 (stereo not given) -3.71%, CCN1CCN(CCCNC(=O)c2ccc3nc(Cc4ccccc4)oc3c2)CC1 -0.929%, COc1ccc(N2CCN(C(=O)c3cc(S(=O)(=O)N4CCC(C)CC4)cn3C)CC2)cc1 3.4%, CCN(C(=O)C1CCN(c2ncnc3c2nc2n3CCCCC2)CC1)c1cccc(Cl)c1 1.22%, O=C(NCC(c1ccc2c(c1)OCO2)N1CCOCC1)c1c(F)cccc1F (stereo not given) 1.55%, COc1ccc(-n2ccnc(NCc3ccc(C)cc3)c2=O)cc1OC -2.52%, Cc1cccc(N2CCN(c3nc4ccc(C)cc4n4cnnc34)CC2C)c1 (stereo not given) -3.91%, CCn1cc(C(=O)NCCc2ccc(Cl)cc2)c(=O)c2cc(S(=O)(=O)N3CCC(C)CC3)ccc21 -12.9%, O=C(c1ccc(F)cc1)n1nc(-c2ccccc2)nc1NCc1ccco1 0.55%, O=C(NC1CCCCC1)c1ccc2c(c1)N(Cc1ccc(Cl)cc1)C(=O)c1ccccc1S2=O (stereo not given) 0.385%, CCOc1ccccc1N(CC)C(=O)c1noc2c1COc1ccc(C)cc1-2 -1.31%, COc1ccc(N(CC(=O)N2CCN(c3ccccc3F)CC2)S(=O)(=O)c2c(C)n[nH]c2C)cc1 -3.8%, Cc1cccc(NC(=O)CCNS(=O)(=O)c2cccc3nsnc23)c1C 8.5%, Cc1ccc(C)c(Cn2c(=O)cc(C)c3c(C)nn(C)c32)c1 -7.1%, CCn1c(C)c(C)c2cc(C(=O)NCc3cccc(C)c3)ccc21 2.31%, Cc1cccc(C(=O)Nc2ccc(C(=O)OCc3cc(=O)n4nc(CC(C)C)sc4n3)cc2)c1 4.51%, COc1ccc(NC(=O)/C=C\C(=O)N(c2ccc(C(C)C)cc2)C(C(=O)NCc2ccco2)c2ccc(F)cc2)cc1 (stereo not given) 0.128%, O=C(c1ccccc1)N(Cc1ccco1)Cc1cccs1 2.53%, COc1cccc(CNC(=O)CCc2c(C)c3cc4c(C)coc4c(C)c3oc2=O)c1 2.04%, CCc1ccccc1NC(=O)CCS(=O)(=O)c1cccc2nonc12 5.21%, COc1ccc(OCC(=O)N2CCN(C(=O)c3cccc(OC)c3)CC2)cc1 3.69%, Cc1ccc(-n2ncc3c(N4CCN(C)CC4)ncnc32)cc1C 11.1%, COc1ccccc1NC(=O)c1sc2nc(C)c(C(=O)Nc3ccc(C)cc3C)c(-c3ccc(C)o3)c2c1N -1.43%, Cc1cccc(NC(=O)Cc2csc(COc3cccc(C)c3)n2)c1 -6.65%, Cc1cccc(C(=O)NCC(=O)OCc2cc(=O)n3nc(C4CC4)sc3n2)c1 2.01%, CCOC(=O)Cn1c(=O)n(C2CCCCC2)c2nc(-c3cccc(OC)c3)nc(C(N)=O)c21 8.2%, Cc1cc(C)cc(NC(=O)CCc2c(C)nc3c4cccnc4nn3c2C)c1 -0.479%, CCOc1ccc(S(=O)(=O)Nc2ccc(-c3ccc(OC)nn3)cc2)cc1 -0.624%, CCC(Sc1nc2nccnc2c(=O)n1Cc1ccc(C)cc1)C(=O)NC1CCCCC1 (stereo not given) -13.8%, CCc1nn2c(=O)c(S(=O)(=O)Nc3cccc(F)c3)c(C)nc2s1 0.981%, CCCNC(=O)N1CCN(S(=O)(=O)c2ccc3c(ccn3C)c2)CC1 -4.19%, COc1cc2c(c(OC)c1)C(c1cc(OC)c(OC)c(OC)c1)CC(=O)N2 (stereo not given) -0.15%, Cc1c2cnn(-c3ccccc3)c(=O)c2c(C)n1CC(=O)NCc1ccccc1 -1.07%, Cc1cccc(-n2c(SCC(=O)c3ccccc3)nnc2-c2ccc(Br)cc2)c1 -0.43%, Cc1ccc(Cl)cc1NS(=O)(=O)c1cc2c3c(c1)CC(=O)N3CCC2 3.45%, Cc1ccc(CNC(=O)Cn2c(=O)n(-c3cccc(Cl)c3)c(=O)c3sc4ccccc4c32)cc1 -5.39%, CCOC(=O)C1CCCN(S(=O)(=O)c2csc(C(N)=O)c2)C1 (stereo not given) -0.533%, COc1ccccc1N1CCN(C(=O)c2cc3ccc4ccc(C)[nH]c4c3n2)CC1 5.41%, CCOc1ccc(-c2cc3nc(C4CCN(C(=O)OC(C)(C)C)CC4)c(C(=O)Nc4ccc(C)cc4C)cn3n2)cc1 -12.4%, CC(CNC(=O)CCCn1c(=O)c2cccn2c2cccnc21)c1ccccc1 (stereo not given) 1.22%, COc1cccc(CNC(=O)c2ccc(NC(=O)N3CC(C)Sc4ccccc43)cc2)c1 (stereo not given) -1.14%, Cc1ccccc1Nc1c(-c2ccncc2)nc2ccc(Cl)cn12 8.76%, COc1ccc(CCNC(=O)c2ccc(CNS(=O)(=O)c3ccccc3)cc2)cc1OC -2.45%, COc1cc(NC(=O)c2ccc(NC(=O)N3CCSc4ncccc43)cc2)cc(OC)c1 -3.59%, CCOc1cccc2sc(N(CCN(CC)CC)C(=O)c3ccco3)nc12 1.55%, CC(C)(C)OC(=O)N1CCC(c2c(C(=O)N3CCN(C(=O)c4ccco4)CC3)cnn2-c2ccccc2)CC1 0.365%, Cc1cccc(CCNC(=O)C2CCCN(S(=O)(=O)c3ccc4c(c3)oc(=O)n4C)C2)c1 (stereo not given) -4.18%, O=C(CSc1cn(CC(=O)N2CCCC2)c2ccccc12)Nc1cc(C(F)(F)F)ccc1Cl -26.8%, CCC1CN(C(=O)Nc2ccc(C(=O)O)cc2)c2cc(Cl)ccc2O1 (stereo not given) -7.23%, COc1cc(NC(=O)c2c(C)oc3ncnc(N4CCCCC4)c23)cc(OC)c1 -0.804%, Cc1ccc2c(c1)c(=O)c1ccccc1n2CCCC(=O)Nc1c(F)cccc1F -5.29%, CN(Cc1ccccc1)C(=O)c1cn(C)c2ccc(S(=O)(=O)N(C)C3CCCCC3)cc2c1=O -8.12%, CCCS(=O)(=O)c1nc(S(=O)(=O)c2ccc(C)cc2)c(NCc2ccccc2)s1 0.787%, CCOc1ccc(NC(=O)CCS(=O)(=O)c2ccc(Br)cc2)cc1 0.646%, COc1ccc(/C=C(/C#N)c2nc(-c3ccc(Br)cc3)cs2)cc1 -3.03%, Cc1cc(Br)ccc1NC(=O)C1CCN(S(=O)(=O)c2ccc(Br)s2)CC1 -3.04%, CCC(=O)N1CCc2cc(S(=O)(=O)CCC(=O)NCc3cccc(OC)c3)ccc21 2.28%, Cc1cccc(Cn2c(SCc3ccc(C(=O)NC4CCCCC4)cc3)nc3ccncc32)c1 -0.917%, COc1ccc(NC(=O)c2c(C)oc3ccc(O)c(CN4CCN(Cc5ccccc5)CC4)c23)cc1 -25.5%, Cc1ccc2c(c1)-c1c(cnn1CC(=O)Nc1ccccc1C#N)CO2 -7.62%, CC(=O)N1CCCc2cc(S(=O)(=O)N3CCCC(C(=O)N4CCN(c5cc(C)ccc5C)CC4)C3)ccc21 (stereo not given) -12.4%, Cc1ccc(OC(=O)CSc2nnc(CNC(=O)c3ccccc3)o2)cc1 -9.83%, CCc1ccc(C2=NN(CCC(=O)NCCc3ccc(Cl)cc3)C(=O)CC2)cc1 -5.77%, Cc1ccc(C(=O)COC(=O)CCC(=O)Nc2ccc(Oc3cc(C)ccc3C(C)C)cc2)cc1 0.578%, O=C(NCC(c1ccccc1)c1ccccc1)c1nn(-c2ccccc2F)nc1CO -4.79%, CCCn1c2ccccc2c2cnn(CC(=O)NC(CCSC)C(=O)OC)c(=O)c21 (stereo not given) -5.83%, Cc1ccc(CCNC(=O)CCSCc2ccccc2Cl)cc1 9.22%, CCOC(=O)c1nnc2c(-c3ccc(Cl)cc3)c(C)nn2c1C -1.5%, Cc1c(C(=O)NCCN(C)C)sc2nc3n(c(=O)c12)CCC3 2.66%, Cc1cc(C)cc(NC(=O)Cn2c3ncccc3c(=O)n2-c2ccc(C)c(C)c2)c1 -2.88%, O=C(NCc1ccccc1)c1ccc2c(c1)nc1n2CCCCC1 0%, Cc1ccc(CSc2ncc(Cl)c(C(=O)Nc3sc4c(c3C(N)=O)CCCC4)n2)cc1 -7.62%, O=C(Cn1cnc2nc3c(cc2c1=O)CCCC3)N1CCN(c2ccccc2)CC1 -7.07%, Cc1cccc(N2CCN(Cc3nnc(-c4ccc5c(c4)OCO5)o3)CC2)c1C -19.4%, CCc1nn2c(=O)cc(COc3ccc(/C=C(\C#N)C(=O)Nc4ccc(C)cc4)cc3)nc2s1 -8.08%, CCc1ccc(NC(=O)Cn2c(=O)n(CC3CCCO3)c(=O)c3cc(OC)c(OC)cc32)cc1 (stereo not given) -7.64%, O=C(Cn1c(=O)c2cccn2c2ccc(F)cc21)N1CCN(c2ccccc2)CC1 0%, Cc1ccc(-c2cc(C(F)(F)F)c(C#N)c(SCC(=O)O)n2)cc1 -13.9%
